# From the supplement of paper PMC7826260
# The list shows a part of the results. Viral Rep nickase domains cut single-stranded DNA in vitro at 3 µM enzyme and 37 °C for 1 h; the strands have 90 letters, of which the middle is given. The score is log2 (uncut reads / reads without enzyme); the lower, the more was cut; hits are not called. Counts are relative to all reads; where an enzyme cuts many sequences, the uncut ones exceed 0.
# What was measured:
# Assay in all cases: uncleaved DNA left, log2 of reads against the no-enzyme library (log2 ratio); higher = less cleavage (more negative = more Rep cleavage of the k-mer); sequences stand for … in CTCGTCCG…ACCGGAGA
# [1] = tested on: T1, Rep nickase domain of Muscovy duck circovirus
# T1 sequence (residues 1-111, tag not shown): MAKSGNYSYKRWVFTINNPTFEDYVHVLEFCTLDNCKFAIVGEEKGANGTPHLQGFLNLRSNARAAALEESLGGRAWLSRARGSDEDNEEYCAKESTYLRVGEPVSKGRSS
# Procedure: (§1)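 A pool of 90-nt single-stranded DNAs with seven random bases just before the constant AC of the nick site (name = the seven bases) was cut by 3 µM recombinant His6-SUMO-tagged Rep nickase domain (300 nM DNA, 50 mM HEPES pH 8.0, 50 mM NaCl, 1 mM MnCl2, 1 h, 37 °C, three replicates). Uncut DNA was amplified and sequenced.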
# [2] = tested on: T2, Rep nickase domain of banana bunchy top virus
# T2 sequence (residues 1-94, tag not shown): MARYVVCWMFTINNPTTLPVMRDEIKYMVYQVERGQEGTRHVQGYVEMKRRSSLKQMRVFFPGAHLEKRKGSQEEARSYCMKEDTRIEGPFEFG
# Procedure: as §1
# [3] = tested on: T3, Rep nickase domain of cabbage leaf curl virus
# T3 sequence (residues 1-116, tag not shown): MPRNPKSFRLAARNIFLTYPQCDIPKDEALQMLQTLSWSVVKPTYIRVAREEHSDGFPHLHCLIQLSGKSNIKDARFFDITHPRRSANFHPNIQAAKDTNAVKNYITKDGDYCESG
# Procedure: as §1
# [4] = tested on: T4, Rep nickase domain of chickpea chlorotic dwarf virus
# T4 sequence (residues 1-124, tag not shown): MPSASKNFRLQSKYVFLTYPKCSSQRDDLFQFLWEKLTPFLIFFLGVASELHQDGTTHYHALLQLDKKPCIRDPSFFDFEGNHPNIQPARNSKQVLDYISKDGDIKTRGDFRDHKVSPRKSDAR
# Procedure: as §1
# [5] = tested on: T5, Rep nickase domain of faba bean necrotic yellows virus
# T5 sequence (residues 1-98, tag not shown): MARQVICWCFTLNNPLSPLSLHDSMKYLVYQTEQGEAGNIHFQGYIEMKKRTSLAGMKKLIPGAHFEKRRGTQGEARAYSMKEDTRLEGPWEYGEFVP
# Procedure: as §1
# [6] = tested on: T6, Rep nickase domain of maize striate mosaic virus
# T6 sequence (residues 1-117, tag not shown): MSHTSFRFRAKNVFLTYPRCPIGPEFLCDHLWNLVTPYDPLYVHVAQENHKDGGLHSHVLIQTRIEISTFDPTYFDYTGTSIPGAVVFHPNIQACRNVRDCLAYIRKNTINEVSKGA
# Procedure: as §1
# [7] = tested on: T7, Rep nickase domain of porcine circovirus 2
# T7 sequence (residues 2-116, tag not shown): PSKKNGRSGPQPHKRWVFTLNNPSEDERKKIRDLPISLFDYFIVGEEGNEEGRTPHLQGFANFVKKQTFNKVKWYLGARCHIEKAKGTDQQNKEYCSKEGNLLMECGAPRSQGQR
# Procedure: as §1
# [8] = tested on: T8, Rep nickase domain of tomato yellow leaf curl virus
# T8 sequence (residues 1-136, tag not shown): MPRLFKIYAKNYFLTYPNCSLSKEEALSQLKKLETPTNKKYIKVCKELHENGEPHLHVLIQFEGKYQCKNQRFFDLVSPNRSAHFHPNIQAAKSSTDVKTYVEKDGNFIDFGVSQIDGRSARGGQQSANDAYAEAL
# Procedure: as §1
# [9] = tested on: T9, Rep nickase domain of wheat dwarf virus
# T9 sequence (residues 1-137, tag not shown): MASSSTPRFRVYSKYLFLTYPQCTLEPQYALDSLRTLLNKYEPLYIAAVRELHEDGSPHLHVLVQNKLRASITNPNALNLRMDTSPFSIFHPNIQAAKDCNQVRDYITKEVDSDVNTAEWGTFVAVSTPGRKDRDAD
# Procedure: as §1
Sequence,uncleaved DNA left (log2) [1],uncleaved DNA left (log2) [2],uncleaved DNA left (log2) [3],uncleaved DNA left (log2) [4],uncleaved DNA left (log2) [5],uncleaved DNA left (log2) [6],uncleaved DNA left (log2) [7],uncleaved DNA left (log2) [8],uncleaved DNA left (log2) [9]
TGCTACT,-2.83,-0.271,-1.57,-2.62,-0.0549,0.507,-3.52,-0.149,-0.85
CCGTGGT,-0.108,-0.0861,-0.941,-0.985,-0.0634,0.203,-2.44,-0.0583,-1.29
GTAGACT,0.0696,0.117,0.394,0.984,-0.0188,1.92,-0.0122,0.044,0.0563
ACCGATA,-0.0151,-0.0626,-0.242,-0.854,0.0595,-0.621,0.117,0.00307,0.148
CATGGCT,0.124,0.0394,-0.494,-0.834,0.205,-1.03,0.319,0.144,-0.0378
CGGTCTA,0.0862,0.103,0.116,0.00873,-0.102,0.65,-0.0772,0.112,0.119
TAGGAGG,0.083,0.0659,0.121,0.728,-0.0204,0.219,0.103,-0.0112,0.0881
TTCAAAA,0.128,-0.0437,0.211,0.312,0.00705,-0.144,-0.0677,-0.00807,0.0963
GACGTAT,0.167,0.0154,0.305,0.432,0.0904,1.16,-0.0248,-0.0278,0.135
TAGAAGA,0.149,0.0729,-0.00355,-0.414,0.0969,-0.931,-0.164,0.0559,0.122
TCGCCAC,0.0797,0.0916,0.173,0.0607,0.042,-0.304,0.0206,0.0784,0.159
TCGGGTA,0.04,-0.0999,0.447,0.451,0.0394,1.01,0.0711,0.171,0.00195
CAGCATG,-0.00706,-0.019,-0.0617,0.273,-0.0644,-0.0386,-0.00496,-0.124,-0.111
CAAACTG,0.0073,0.0799,0.0817,0.613,0.072,0.961,0.013,-0.0197,0.01
TAGTGCA,-0.344,-0.531,-0.519,-1.75,-0.281,-1.16,-2.91,-0.0608,-0.215
CAACGAG,0.00605,0.0306,0.0805,0.204,0.02,-0.679,0.144,0.0893,0.115
GGACCAA,0.000373,0.123,0.797,1.68,0.077,2.12,0.169,0.108,0.177
GCACGCA,-0.115,-0.0327,-0.324,-0.183,-0.102,-0.539,-0.0789,-0.138,-0.174
TCACCGA,0.0543,-0.0338,-0.288,-0.556,0.0196,-0.823,-0.0462,-0.0352,-0.149
ATCGATA,0.0492,-0.016,-0.113,-0.872,0.0256,-0.318,-0.0829,-0.0927,0.0187

Sequence,uncleaved DNA left (log2) [1],uncleaved DNA left (log2) [2],uncleaved DNA left (log2) [3],uncleaved DNA left (log2) [4],uncleaved DNA left (log2) [5],uncleaved DNA left (log2) [6],uncleaved DNA left (log2) [7],uncleaved DNA left (log2) [8],uncleaved DNA left (log2) [9]
GAGTCAG,-0.0285,0.0896,0.122,0.725,0.0297,-0.473,0.0313,0.123,0.152
TGGGGGT,-0.00397,-0.0983,0.335,1.37,0.0286,1.8,0.181,-0.17,-0.129
CGGGAAC,0.109,-0.0257,0.683,1.74,-0.0432,2.11,0.0944,-0.0776,0.122
CATCGTA,0.00131,0.0502,-0.336,-1.46,-0.0373,-1.03,-0.0741,0.0686,-0.0626
CCTCTAG,0.194,0.163,-0.596,-0.515,0.0855,-0.997,0.231,0.0961,-0.127
TGCGCTG,0.00768,0.00813,0.05,0.551,-0.0769,1.65,0.1,-0.0784,-0.0611
TATTACA,-3.78,-1.67,-2.45,-3.06,-0.97,-0.677,-3.67,0.193,-2.42
AGCCAAG,0.0141,0.134,-0.345,-0.365,0.0486,-0.695,0.272,0.0813,0.0397
GCTGACC,-0.00953,0.104,0.0892,0.729,0.0274,1.05,0.155,-0.0122,0.0342
CTTCCGA,0.0236,0.04,0.0975,0.138,0.0253,-0.529,0.295,0.00424,0.166
GCATGAC,0.0399,-0.0266,0.177,0.591,-0.0569,0.0725,0.143,-0.0744,0.0073
ACGGCAT,-0.117,-0.139,-0.00476,0.424,-0.0664,0.232,-0.0751,-0.201,-0.065
CAGGACA,-0.0358,0.0705,0.508,1.04,0.149,1.35,0.237,0.00279,0.152
AGGCTAA,-0.0913,-0.0589,0.0067,0.237,-0.169,0.348,-0.174,-0.171,-0.0277
ACAGCGC,-0.127,-0.1,-0.343,0.56,-0.146,-0.143,-0.0854,-0.17,-0.128
CGATAGT,-1.17,0.0951,0.0766,0.0126,0.0153,0.274,-1.75,0.0107,0.109
CACAGGG,0.147,0.0423,-0.48,-0.236,0.0422,-0.85,0.209,0.0759,-0.0477
GTTCTGT,-0.0935,-0.0621,0.169,0.664,-0.152,1.47,0.00565,0.0227,-0.0194
GATCGTA,-0.0354,-0.159,0.00511,0.0116,-0.168,0.3,-0.0957,-0.11,-0.0748
TGCGGCA,0.0165,-0.00829,-0.131,0.0556,-0.0415,-0.247,0.0208,0.00895,-0.0265

Sequence,uncleaved DNA left (log2) [1],uncleaved DNA left (log2) [2],uncleaved DNA left (log2) [3],uncleaved DNA left (log2) [4],uncleaved DNA left (log2) [5],uncleaved DNA left (log2) [6],uncleaved DNA left (log2) [7],uncleaved DNA left (log2) [8],uncleaved DNA left (log2) [9]
CGACGAC,0.132,-0.0266,0.0696,0.606,0.00498,0.821,0.0709,-0.0682,0.0641
CTATCAT,-0.0629,0.26,0.234,-0.327,0.0676,-0.189,-0.326,0.212,0.278
AGATAAT,-3.16,0.0839,-0.47,-1.42,-0.0225,0.187,-3.35,0.178,-0.659
AAGGGAC,-0.0203,0.112,0.57,1.65,-0.092,1.34,0.17,0.0491,0.108
GACGAAC,0.0177,0.000923,-0.0364,0.438,-0.00644,0.228,0.131,0.0636,0.0807
GCTTAAC,-0.0593,0.0505,-0.0971,-0.337,0.0247,0.0597,0.0419,-0.0454,0.0265
AGGATCC,0.0929,0.0622,0.123,0.618,-0.0298,0.653,0.0672,0.0184,0.11
CGGGTGG,0.0086,-0.115,-0.0966,0.391,-0.2,0.189,0.0127,-0.0719,-0.105
GCCTACC,-0.114,-0.137,-0.112,-1.41,-0.0894,0.03,-0.503,-0.115,-0.189
GACGAGG,0.106,0.0434,0.306,0.972,0.0362,0.958,0.097,0.0925,0.0517
GCCGCAT,-0.112,-0.0774,0.28,0.71,-0.0584,0.568,0.0485,0.00141,0.00381
CAAATTC,-0.0458,-0.0338,-0.416,-1.02,-0.00449,-1.07,0.0374,0.0385,-0.133
CTGTATC,-0.1,-0.125,-0.056,-0.0881,-0.253,-0.532,-0.24,0.0452,-0.142
ATCTAGC,0.15,0.000774,-0.421,-0.495,-0.0486,-1.08,0.14,0.114,0.099
GAACGTA,0.00478,-0.0512,0.313,-0.0449,-0.0174,0.963,0.0156,0.106,-0.00978
GTAGGTG,0.0388,-0.0229,-0.24,-0.195,-0.124,-0.501,-0.0245,0.0227,-0.168
CGTCATT,-0.0744,-0.0247,0.119,-0.96,-0.126,0.147,-1.87,0.135,0.0554
CAGACCT,-0.0777,-0.205,-0.0621,-0.8,-0.324,0.718,-3.12,-0.0629,-0.104
GTAAGTA,0.215,0.122,0.168,-0.113,0.0541,1.39,0.0511,0.176,0.132
CCAGGCG,-0.0777,0.00894,-0.725,0.374,-0.0515,-0.454,0.0832,0.0813,-0.146
